Data from PubChem BioAssay AID1508624 (National Center for Advancing Translational Sciences (NCATS), 2021).
Out of some 48,000 compounds screened, about 120 (0.25%) were called active. Inconclusive results (about 4%) are left out. The call rests on the fitted dose curve; in most records, active means well fitted activation curve with a large enough effect; inconclusive means small, poorly fitted or top-dose-only effect, or another doubt; inactive means no such curve, though single readings can be large or run the other way. Some of the results follow.

experiment: Primary qHTS for Identification of Small Molecule Activators of Huntingtin-Antisense Promoter Activity; conditions: HEK293 HTT-AS promoter firefly luciferase reporter (activity 0% = vehicle and -100% = no light), 24 h; series mostly up to 57.5 µM; activity change, positive = activation: at the top concentration; further: nearly all actives have a fitted effect of over 55% in size
How it was run: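 Quantitative HTS used concentration series of up to 57.5 uM final on HEK293 luciferase reporter cells, 24 h at 37 degrees C. Readout was Dual-Glo firefly luminescence.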

Activity change, positive = activation, inactive:
COc1ccc(N2CCN(CCCNC(=O)c3ccc4nc(CCc5ccccc5)oc4c3)CC2)cc1 -14.7%
CCOc1ccc(C2C(C(=O)Nc3ccc(OC)cc3)=C(C)Nc3nc(SCc4ccc(Cl)cc4)nn32)cc1 (stereo not drawn) 6.13%
Cc1c(Cl)cccc1NC(=O)c1ccc(NC(=O)N2CCSc3ncccc32)cc1 11.1%
Cc1ccccc1NC(=O)CS(=O)(=O)c1cccc2nsnc12 -29.4%
Cn1c(CNC(=O)CSc2n[nH]c(-c3ccccc3)n2)nc2ccccc21 -6.71%
CCCCCOC(=O)CSc1nc2sc3c(c2c(=O)n1Cc1ccccc1)CC(C)(C)OC3 -5.13%
CC(C)(C)C1CCc2c(sc(NC(=O)Cn3nnc(-c4cccc(C(F)(F)F)c4)n3)c2C#N)C1 (stereo not drawn) -15.7%
Fc1ccc(Nc2nc3nonc3nc2Nc2cccc(C(F)(F)F)c2)cc1 -94.8%
CCCCc1nn2c(=O)cc(COC(=O)c3ccc(NC(=O)c4cccs4)cc3)nc2s1 -4.84%
CCN1CCSc2ccc(C(=O)NCc3cccc(F)c3)cc21 -4.2%
O=C(Cn1c(=O)n(-c2ccc(Cl)cc2)c(=O)c2c3c(sc21)CCC3)c1ccc(F)cc1 -7.21%
COc1ccccc1Cn1c(CNS(=O)(=O)c2ccc3c(c2)CCCC3)nc2cccnc21 -30.3%
COc1ccccc1N1CCN(C(=O)CSc2nc3ccccc3nc2Cc2ccc(F)cc2)CC1 -14.9%
Cc1csc2nc(COc3ccc(NC(=O)COc4ccccc4F)cc3)cc(=O)n12 -2.7%
Cc1nc2sccn2c(=O)c1S(=O)(=O)Nc1ccc(N2CCN(S(C)(=O)=O)CC2)cc1 -32.9%
Cc1ccc(-c2nc3ccccc3o2)cc1NC(=O)c1cccc2c(Cl)cccc12 18.2%
CCC(=O)N1c2ccccc2CC1C(=O)NCCN1CCN(c2cccc(C)c2C)CC1 (stereo not drawn) -20.9%
O=C(CSc1nc(-c2ccccc2)[nH]c1-c1ccccc1)Nc1ccc2c(c1)OCO2 -27.6%
Cc1cccc(Nc2nc(-c3ccccc3)c3cc(C)ccc3n2)c1 -19.1%
O=[N+]([O-])c1cc(-c2nc(-c3ccccc3)no2)ccc1N1CCCC1 -87.7%
COc1cccc(CNC(=O)CCc2nnc3n(CC(C)C)c(=O)c4ccccc4n23)c1 -9.9%
Cc1sc2c(c1C)c(=O)n(-c1ccccc1)c(=O)n2CC(=O)c1ccc(Cl)cc1 -10.4%
Cc1ccc(NC(=O)CSc2nnc3[nH]c(=O)cc(C)n23)cc1Cl 13.7%
CCC(Sc1nc2c(sc3ccccc32)c(=O)n1CCCC(=O)NC1CCCC1)C(=O)Nc1cccc(OC)c1 (stereo not drawn) -9.08%
CC(C)CC(=O)N1CC(=O)Nc2ccc(F)cc2C1c1ccccc1 (stereo not drawn) -1.34%
CC(C)OCCCn1c(SCC(=O)Nc2ccc(F)cc2)nc2c(sc3ccccc32)c1=O 0.424%
NCCCC(N)(C(=O)O)C(F)F (stereo not drawn)
COc1cc(CNC(=O)CSCc2nc3cccnc3n2C2CCCCC2)cc(OC)c1OC -15%
CC(=O)Nc1ccc(OCCOCCOc2ccc(NC(C)=O)cc2)cc1 -6.7%
Cc1ccc(C)c(NC(=O)CCc2nc(-c3ccc(C(C)(C)C)cc3)no2)c1 -34.2%
CCOc1cc(C#N)c(NC(=O)c2cccc(S(=O)(=O)N3CCOCC3)c2)cc1OCC -20%
CCC(=O)N1CCc2cc(CNC(=O)Nc3ccccc3Cl)ccc21 -0.878%
O=C(CCNS(=O)(=O)c1ccc2c(c1)CCCC(=O)N2)NCc1ccccc1Cl -16.7%
CCCCCCCCCCCC1=C(O)C(=O)C=C(O)C1=O -26.2%
COc1cccc(NC(=O)CN(C)S(=O)(=O)c2cccs2)c1 16.8%
CC(C(=O)NCc1ccccc1)N1Cc2ccccc2C1=O (stereo not drawn) 4.93%
CC1CCN(C(=O)CSc2nc(-c3ccc(C(C)C)cc3)no2)CC1 5.87%
O=C(Nc1ccc([N+](=O)[O-])cc1)Nc1ccc([N+](=O)[O-])cc1 -4.07%
CCCS(=O)(=O)N1CC(=O)N(c2ccccc2F)C(C)(C(=O)NC2CCCCCC2)C1 (stereo not drawn) -7%
Cc1ccc(C(=O)Nc2ccc3c(c2)N(C)C(=O)c2ccccc2S3)cc1 -47.4%
CCc1ccc(NC(=O)c2cc(S(=O)(=O)N3CCCC3)ccc2F)cc1 -14.9%
COc1ccc(CCNC(=O)c2cc(C)nc3c2c(C)nn3-c2ccccc2)cc1OC -14.3%
Cc1cccc(-n2ncc(C(=O)N3CCc4ccccc4C3)c2C2CCN(C(=O)OC(C)(C)C)CC2)c1 -1.84%
Cc1oc2ccc(O)c(CN3CCCCCC3)c2c1C(=O)Nc1cccc(Cl)c1C -37.9%
Cc1nn2c(=O)cc(COC(=O)c3cccc(NC(=O)COc4ccc(C)c(C)c4)c3)nc2s1 3.65%
N#Cc1c[nH]n2c(NC3CCCCC3)c(-c3ccccc3F)nc12 -6.33%
CCSc1ncc(Cl)c(C(=O)N(Cc2ccccc2Cl)C2CCS(=O)(=O)C2)n1 (stereo not drawn) 3.64%
O=C(C1CCN(S(=O)(=O)c2cccs2)CC1)N1CCN(c2cccc(Cl)c2)CC1 -17.3%
CCN(CC)CCCNC(=O)c1ccc2c(c1)N(Cc1c(F)cccc1Cl)C(=O)c1ccccc1S2 -48.4%
CSc1ncc2c(n1)-c1ccccc1N(Cc1ccc(F)cc1)S2(=O)=O 19.4%
O=C(NCCc1ccc(Cl)cc1)C(=O)NCC(c1ccco1)S(=O)(=O)c1cccs1 (stereo not drawn) -12.9%
Cc1ccc(OCCSc2nc3ccc(NC(=O)c4ccc5c(c4)OCO5)cc3s2)cc1 -3.19%
O=C(Nc1ccc(F)cc1)C1CCN(c2nc3ccccc3n3cccc23)CC1 -8.46%
COc1ccc(NC(=O)c2cc3c(=O)n(C)c4ccccc4c3s2)cc1Cl -16.6%
CCOC(=O)C1CCCN(C(=O)c2c(C)nn(-c3ccc(F)cc3)c2-n2cccc2)C1 (stereo not drawn) -10.2%
CCS(=O)(=O)N1CCc2cc(C(=O)Nc3cccc(C)c3C)ccc21 28.4%
CCCc1ccc(OC(=O)CSc2nnc(-c3cccs3)o2)cc1 -1.28%
CSc1ccc(CCNC(=O)CCn2c(=O)c3cccn3c3cccnc32)cc1 -5.98%
Cc1cccc(NC(=O)CSc2nnc(N)s2)c1 -2.74%
O=C(NC1(C(F)(F)F)NC(=O)N(CCc2ccccc2)C1=O)c1ccccc1Cl (stereo not drawn) -15.3%
Cc1nc(-n2nc(C)c(Cc3ccccc3Cl)c2C)sc1C(=O)N1CCC(C)CC1 -3.52%
O=C(CCn1cccn1)NCc1ccc(Cl)cc1 -5.32%
CCOC(=O)C(CC)Sc1ncnc2sc3c(c12)CCCC3 (stereo not drawn) -28.8%
